# Laboratory results: PMC4336329 (PLoS ONE, 2015)
# Screen size: about 310,000 compounds; about 2,200 (0.71%) showed an effect of 50% or more. Effects have a minus sign here. This is one part of the list.
# Target: human ether-à-go-go-related gene (hERG) potassium channel (human, UniProt Q12809)
# Assay: primary screen, population patch clamp on CHO cells stably expressing hERG
# Chain of human ether-à-go-go-related gene (hERG) potassium channel (Q12809 whole entry, looked up): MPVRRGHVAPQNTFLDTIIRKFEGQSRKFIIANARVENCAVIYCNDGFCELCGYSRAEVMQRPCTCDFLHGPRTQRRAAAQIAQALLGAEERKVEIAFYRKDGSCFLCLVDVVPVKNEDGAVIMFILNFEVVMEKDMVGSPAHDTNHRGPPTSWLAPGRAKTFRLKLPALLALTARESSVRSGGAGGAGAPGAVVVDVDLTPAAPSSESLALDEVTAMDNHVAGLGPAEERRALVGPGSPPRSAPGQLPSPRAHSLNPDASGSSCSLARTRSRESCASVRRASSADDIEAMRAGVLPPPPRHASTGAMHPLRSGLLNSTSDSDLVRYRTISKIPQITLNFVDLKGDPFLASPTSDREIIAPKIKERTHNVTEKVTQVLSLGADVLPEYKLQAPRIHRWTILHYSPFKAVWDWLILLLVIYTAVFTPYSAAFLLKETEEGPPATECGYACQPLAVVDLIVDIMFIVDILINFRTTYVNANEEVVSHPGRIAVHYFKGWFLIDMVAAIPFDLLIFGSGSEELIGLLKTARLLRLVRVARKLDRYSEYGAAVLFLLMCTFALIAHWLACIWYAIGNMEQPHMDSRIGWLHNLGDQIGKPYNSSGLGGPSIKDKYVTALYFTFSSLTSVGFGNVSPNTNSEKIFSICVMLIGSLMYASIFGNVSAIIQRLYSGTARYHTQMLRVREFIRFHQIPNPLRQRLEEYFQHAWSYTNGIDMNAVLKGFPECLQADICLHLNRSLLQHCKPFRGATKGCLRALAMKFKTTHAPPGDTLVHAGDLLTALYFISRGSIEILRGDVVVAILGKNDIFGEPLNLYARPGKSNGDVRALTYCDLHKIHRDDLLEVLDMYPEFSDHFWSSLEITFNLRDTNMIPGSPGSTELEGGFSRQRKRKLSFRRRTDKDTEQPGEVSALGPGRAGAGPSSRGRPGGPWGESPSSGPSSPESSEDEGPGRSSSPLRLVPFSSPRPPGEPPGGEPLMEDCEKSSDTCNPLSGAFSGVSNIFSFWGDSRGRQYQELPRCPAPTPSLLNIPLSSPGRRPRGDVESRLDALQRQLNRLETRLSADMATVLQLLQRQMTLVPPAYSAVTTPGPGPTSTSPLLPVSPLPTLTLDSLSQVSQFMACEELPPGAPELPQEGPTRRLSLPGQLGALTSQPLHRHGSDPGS
row,Structure (SMILES),"hERG current change (%, negative = inhibition) at 1uM [%]"
1,COc1ccc(NC(=O)CC(c2ccco2)C(C)C)cc1 (stereo not drawn),21.5
2,O=C(NCCO)Nc1ccc2nsnc2c1,-7.54
3,CCCC(=O)NC(c1ccccc1Cl)c1ccc2cccnc2c1O (stereo not drawn),12
4,O=[N+]([O-])c1cc(S(=O)(=O)c2ccc(N3CCCCC3)c([N+](=O)[O-])c2)ccc1N1CCCCC1,9.27
5,COc1ccc(C2=NOC(COc3ccc([N+](=O)[O-])cc3)C2)cc1 (stereo not drawn),7.89
6,CC(=O)c1ccc(OCCOc2ccc([N+](=O)[O-])cc2)cc1,-1.36
7,O=C(Nc1ccc2c(c1)CCC2)Nc1ccccc1F,-37.7
8,O=C(Nc1ccc(NC(=O)c2ccc(S(=O)(=O)c3ccccc3)cc2)cc1)c1ccccc1,20
9,Nc1nc(SCC(=O)NCCO)nc2sc3c(c12)CCCC3,2.69
10,CCN(CC)S(=O)(=O)c1ccc2c(c1)nc(SCC(N)=O)n2-c1ccc(OC)cc1,-16.9
11,CCNC(=S)NNC(=O)c1cccn(Cc2ccc(Cl)cc2Cl)c1=O,2.45
12,CCC(=O)NC(Nc1nc(C)cs1)(C(=O)OC)C(F)(F)F (stereo not drawn),0.8
13,Cc1ccc(Cn2c(=N)c(C(=O)NC3CCCCC3)cc3c(=O)n4ccccc4nc32)cc1,-5.62
14,COCc1cc(=O)n2[nH]c(-c3ccccc3)cc2n1,-3.4
15,Cc1nn(-c2ccccc2)c2sc(C(=O)OCc3nnc(-c4ccccc4)o3)cc12,4.81
16,Cc1nnc2ccc(-c3ccc(NS(=O)(=O)c4ccc(F)cc4F)cc3)nn12,5.57
17,O=C(O)CCC(NC(=O)c1ccc(Cl)cc1)C(=O)O (stereo not drawn),13.2
18,O=C(NCC1CCCO1)c1cc(S(=O)(=O)N2CCOCC2)ccc1Cl (stereo not drawn),17.6
19,O=C(c1ccco1)n1nc(-c2ccccc2)nc1NCc1ccco1,7.97

row,Structure (SMILES),"hERG current change (%, negative = inhibition) at 1uM [%]"
1,CC(=O)N1CCN(C2=NC(=O)/C(=C\c3cccs3)S2)CC1,1.72
2,COc1ccc(NC(=O)CSc2nc3ccccc3c(=O)n2CCCC(=O)NCC2CCCO2)c(OC)c1 (stereo not drawn),14.1
3,CCCn1c(=O)c(C(=O)NNS(=O)(=O)c2ccc(Cl)cc2)c(O)c2ccccc21,-7.17
4,CNC(=O)COc1ccc(S(=O)(=O)Nc2ccccc2)cc1,11.8
5,O=C(OCC(=O)N1CCCC1)c1c(Cl)ccc(Cl)c1Cl,9.45
6,O=C(O)c1cc(-c2ccc(N3CCOCC3)cc2)nn1-c1ccc(F)cc1F,12.7
7,O=C(Nc1ccnn1C1CCN(CC(O)CO)CC1)C1CCCC1 (stereo not drawn),12.5
8,CC(NC(=O)c1ccccc1NC(=O)c1ccccc1)C(=O)N1CCOCC1 (stereo not drawn),1.87
9,Cl.Cn1c2c(c3ccccc31)CCN1CCC[C@]21c1ccccc1,12.1
10,Cc1cc(C)n(C(=O)CNC(=O)c2cccc(Br)c2)n1,2.07
11,CN(C)c1ccc(NC(=O)c2ccc3nc[nH]c3c2)cc1,14.3
12,CC1CCCCN1CC(=O)Nc1ccc(Oc2ccccc2)cc1.Cl (stereo not drawn),-2.88
13,COc1ccc(N(C)C(=O)c2cn(C)c(=O)c3cc(OC)c(OC)cc23)cc1,14.6
14,CCOc1ccc(NC(=O)CSc2nnc(Cn3cnc([N+](=O)[O-])n3)n2C)cc1,13.8
15,C=CCC1NS(=O)(=O)O[C@H](CCCC)[C@@H]1O (stereo partly drawn),8.57
16,O=C(N/N=C/c1cc(O)ccc1Br)c1cccnc1,16.6
17,O=C(CCCN1C(=O)/C(=C\c2cccs2)SC1=S)Nc1cccnc1,15.2
18,O=C(Cc1ccc(F)cc1)NCCS(=O)(=O)N1CCN(c2ccccc2)CC1,17.2
19,O=C(COC(=O)CCC(NC(=O)OCc1ccccc1)C(=O)OCC(=O)Nc1ccccc1)Nc1ccccc1 (stereo not drawn),-1.5

row,Structure (SMILES),"hERG current change (%, negative = inhibition) at 1uM [%]"
1,CCc1ccnc(NC(=O)NS(=O)(=O)c2ccc(C)cc2)c1,17.5
2,BrC(=C\c1ccccc1)/C=N/Nc1nc2ccccc2[nH]1,6.83
3,O=C(CN1CCN(Cc2ccc3c(c2)OCO3)CC1)Nc1ccc(N2CCOCC2)cc1,8.8
4,CCCCCC(=O)NNC1=NCC(Cc2cccc(Cl)c2)S1 (stereo not drawn),9.14
5,CC(=O)Nc1ccc(-c2cn3c(n2)SCC3)cc1,9.67
6,COc1cc(/C=N/NC(=O)c2cccnc2)cc(Br)c1O,8.09
7,CCC(C)CCN1CCN=C1N(C)C (stereo not drawn),17.6
8,CC(=O)N1CCOc2cc(S(=O)(=O)NCc3ccc(F)cc3)c(C)cc21,-6.22
9,COc1ccc(NC2c3ccccc3C(=O)N2Cc2ccc3c(c2)OCO3)cc1 (stereo not drawn),6.29
10,O=c1c2c(nc3nc(NCc4cccc5ccccc45)[nH]n13)CCC2,16.1
11,CCN(CC(=O)Nc1c(F)cccc1F)C(=O)CSc1nc(C)cc(C)n1,9.69
12,CC(=O)C1=C(C)NC(=S)NC1c1cccc([N+](=O)[O-])c1 (stereo not drawn),9.64
13,O=C(Cn1ncc2ccccc21)N1CCN(c2cccc(C(F)(F)F)c2)CC1,5.47
14,Cc1ccc2occ(CN3CCN(Cc4ccccc4)CC3)c(=O)c2c1,-9.34
15,CN(C)CCNC(=O)c1cccc(S(=O)(=O)Nc2ccc(F)cc2)c1.Cl,19.6
16,COC(=O)c1c(NC(=O)/C=C/C(=O)O)sc(C)c1-c1ccc(C)c(C)c1,5.79
17,O=S(=O)(c1cc(Cl)cc(Cl)c1)N1CCCC1c1nc2ccccc2s1 (stereo not drawn),9.87
18,CN(C)c1cccc(C(=O)N/N=C/c2ccccc2F)c1,6.01
19,CS(=O)(=O)c1nc(S(=O)(=O)c2ccc(Cl)cc2)c(N2CCC(C(N)=O)CC2)s1,-6.12
